Results published in the antibiotic and cytotoxicity screens of Wong et al. (2023).
The list shows a part of the results.

These compounds were tested on S. aureus RN4220 (assay: growth inhibition call (relative growth <= 0.2)). Conditions: 50 µM.

Growth inhibition call, inactive:
COc1ccc(NC(=O)Nc2ccc3c(c2)C(=O)N([C@@H](C)CO)C[C@H](C)[C@H](CN(C)C(=O)NC2CCCCC2)OCCCC[C@@H](C)O3)cc1
Cc1ccc2nc(-c3ccc(NC(=O)C4CCC4)cc3)sc2c1
C[C@@H]1CN([C@@H](C)CO)C(=O)c2cc(NC(=O)Cn3cnnn3)ccc2O[C@@H]1CN(C)S(=O)(=O)c1cn(C)cn1
C[C@@H]1O[C@H]2Oc3c(-c4ccc(O)cc4)oc4cc(O)c(c(O)c4c3=O)-c3cc(ccc3O)/C=C\C(=O)OC[C@H]3O[C@@H](O[C@H]([C@H]1O)[C@H]2O)[C@H](O)[C@@H](O)[C@@H]3O
COC(=O)c1c(CC[C@@H](CO)NC(=O)N2CCC[C@H]2Cn2cc(C3(O)CCCCC3)nn2)oc(C(C)=O)c1C(=O)OC
O=C(CCCCCCC(=O)Nc1ccc([C@H]2O[C@@H](CSc3nc(-c4ccccc4)c(-c4ccccc4)o3)C[C@H](c3ccccc3)O2)cc1)NO
COc1ccc(S(=O)(=O)Nc2ccc3c(c2)CC(=O)N([C@H](C)CO)C[C@H](C)[C@@H](CN(C)S(=O)(=O)c2cn(C)cn2)O3)cc1
C[C@H](CO)N1C[C@H](C)[C@@H](CN(C)C(=O)Nc2ccc3c(c2)OCO3)OCc2cnnn2CCCC1=O
Nc1ncccc1O
